# Laboratory results as given in patent US12729231B2, “Fusion protein having triple activity and use thereof” (SHANGHAI MINWEI BIOTECHNOLOGY CO., LTD, priority 2023, dated 2026).
# T1: human GIP receptor (Homo sapiens, UniProt P48546)
# T1 construct: expressed in transfected cells; host or cells: CHO-K1
# T1 sequence (P48546 22-466): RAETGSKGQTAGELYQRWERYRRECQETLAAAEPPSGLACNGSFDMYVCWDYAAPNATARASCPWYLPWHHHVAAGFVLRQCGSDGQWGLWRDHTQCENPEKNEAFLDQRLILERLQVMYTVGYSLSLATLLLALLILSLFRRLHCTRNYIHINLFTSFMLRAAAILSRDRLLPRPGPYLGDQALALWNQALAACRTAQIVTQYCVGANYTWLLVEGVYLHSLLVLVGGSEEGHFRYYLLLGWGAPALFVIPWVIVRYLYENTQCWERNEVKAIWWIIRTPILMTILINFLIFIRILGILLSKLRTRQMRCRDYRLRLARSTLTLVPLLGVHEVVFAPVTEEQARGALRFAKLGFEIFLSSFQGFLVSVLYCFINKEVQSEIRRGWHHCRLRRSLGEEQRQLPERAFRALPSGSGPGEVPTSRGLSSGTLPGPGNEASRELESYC
# Tests used:
# human GIP receptor = molecular target: T1, human GIP receptor; test: in vitro GIP activity, CRE-luciferase reporter in CHO-K1 cells; type: cell-based; details: CHO-K1 cells expressing human GIP receptor and CRE-luciferase, 5 hours incubation
# Description: (§1) CHO-K1 cells expressing human GIP receptor and CRE-luciferase were used to detect the in vitro GIP activity of the fusion proteins. The cells were inoculated in a 96-well plate at a density of 30,000 cells/well/100 μL, and cultured at 5% CO2, 37° C. for 1 hour. For each protein sample to be tested, the protein solution was diluted 9 times with a 4-fold gradient with PBS containing 2% HAS starting from a certain concentration, so that 10 dilutions of each sample with different concentrations were obtained. 50 μL of each dilution was taken out and added into the 96-well plate inoculated with cells, and the 96-well plate was incubated at 5% CO2, 37° C. for 5 hours. The 96-well plate was taken out from the incubator and placed at room temperature for 10 minutes of equilibration, and 100 μL of reaction solution was added into each well. After the 96-well plate was shaken at 200 rpm for 10 minutes, the fluorescence reading of each well was detected by a multi-function microplate reader. Using the sample concentration as the abscissa and the fluorescence reading as the ordinate, a curve was drawn and the median effective concentration (EC50) of each sample was calculated.
# human GLP-1 receptor = molecular target: T2, human GLP-1 receptor (Homo sapiens, UniProt P43220); test: in vitro GLP-1 activity, CRE-luciferase reporter in CHO-K1 cells; type: cell-based; details: CHO-K1 cells expressing human GLP-1 receptor and CRE-luciferase, 5 hours incubation
# T2 construct: expressed in transfected cells; host or cells: CHO-K1
# T2 sequence (P43220 24-463): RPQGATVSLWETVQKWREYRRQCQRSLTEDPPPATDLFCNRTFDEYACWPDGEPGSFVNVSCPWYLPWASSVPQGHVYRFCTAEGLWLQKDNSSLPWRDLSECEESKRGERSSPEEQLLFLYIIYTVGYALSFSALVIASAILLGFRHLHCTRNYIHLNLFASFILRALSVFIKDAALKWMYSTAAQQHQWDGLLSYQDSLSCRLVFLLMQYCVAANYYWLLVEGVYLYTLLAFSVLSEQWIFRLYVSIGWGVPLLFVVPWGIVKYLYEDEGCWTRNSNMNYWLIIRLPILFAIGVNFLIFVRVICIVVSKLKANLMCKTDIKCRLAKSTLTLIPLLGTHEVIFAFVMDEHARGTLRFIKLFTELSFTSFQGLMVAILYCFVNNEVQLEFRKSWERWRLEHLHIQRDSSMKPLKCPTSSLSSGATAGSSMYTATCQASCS
# Description: as §1, with “GLP-1” for “GIP”
Molecule,EC50 (human GIP receptor) [nM],EC50 (human GLP-1 receptor) [nM]
"12C3-F: GLP-1/GIP mutant 12C3 (SEQ ID NO 10)-linker-IgG4 Fc-linker-FGF21 mutant fusion protein, SEQ ID NO 5 (protein, 12C3-F fusion protein) YGEGTFTSDYSIYLDKIAQKAFIEWLIAGGPSSGAPPPSGGGGSGGGGSGGGGSA[human IgG4 Fc with S228P F234A L235A (EU numbers) not listed]GGGGSGGGGSGGGGSHPIPDSSPLLQFGGQVRQVYLYTDDAQQTEAHLEIREDGTVGGAADQSPESLLQLKALKPGVIQILGVKTSRFLCQRPDGALYGSLHFDPEACSFRERLLEDGYNVYQSEAHGLPLHLPGNKSPHRDPAPRGPARFLPLPGLPPALPEPPGILAPQPPDVGSSDPLSMVGNSTGRSPSYAS",0.055,0.515
"12C4-F: fusion protein with R1 = 12C4 (SEQ ID NO 11), linker, Fc, linker, FGF21 element (protein) HSEGTFTSDYSILLDKIAAKDFIEWLIAGGPSSGAPPPSGGGGSGGGGSGGGGSA[human IgG4 Fc with S228P F234A L235A (EU numbers) not listed]GGGGSGGGGSGGGGSHPIPDSSPLLQFGGQVRQVYLYTDDAQQTEAHLEIREDGTVGGAADQSPESLLQLKALKPGVIQILGVKTSRFLCQRPDGALYGSLHFDPEACSFRERLLEDGYNVYQSEAHGLPLHLPGNKSPHRDPAPRGPARFLPLPGLPPALPEPPGILAPQPPDVGSSDPLSMVGNSTGRSPSYAS",0.056,2.56
"12C5-F: fusion protein with R1 = 12C5 (SEQ ID NO 12), linker, Fc, linker, FGF21 element (protein) YGEGTFTSDYSILLDKIAAKDFVQWLIAGGPSSGAPPPSGGGGSGGGGSGGGGSA[human IgG4 Fc with S228P F234A L235A (EU numbers) not listed]GGGGSGGGGSGGGGSHPIPDSSPLLQFGGQVRQVYLYTDDAQQTEAHLEIREDGTVGGAADQSPESLLQLKALKPGVIQILGVKTSRFLCQRPDGALYGSLHFDPEACSFRERLLEDGYNVYQSEAHGLPLHLPGNKSPHRDPAPRGPARFLPLPGLPPALPEPPGILAPQPPDVGSSDPLSMVGNSTGRSPSYAS",0.032,6.32
"12C6-F: fusion protein with R1 = 12C6 (SEQ ID NO 13), linker, Fc, linker, FGF21 element (protein) HGEGTFTSDYSILLDKIAQKDFVQWLIAGGPSSGAPPPSGGGGSGGGGSGGGGSA[human IgG4 Fc with S228P F234A L235A (EU numbers) not listed]GGGGSGGGGSGGGGSHPIPDSSPLLQFGGQVRQVYLYTDDAQQTEAHLEIREDGTVGGAADQSPESLLQLKALKPGVIQILGVKTSRFLCQRPDGALYGSLHFDPEACSFRERLLEDGYNVYQSEAHGLPLHLPGNKSPHRDPAPRGPARFLPLPGLPPALPEPPGILAPQPPDVGSSDPLSMVGNSTGRSPSYAS",0.009,7.12
"12C7-F: fusion protein with R1 = 12C7 (SEQ ID NO 14), linker, Fc, linker, FGF21 element (protein) HSEGTFTSDYSIYLDKIAAKDFIEWLIAGGPSSGAPPPSGGGGSGGGGSGGGGSA[human IgG4 Fc with S228P F234A L235A (EU numbers) not listed]GGGGSGGGGSGGGGSHPIPDSSPLLQFGGQVRQVYLYTDDAQQTEAHLEIREDGTVGGAADQSPESLLQLKALKPGVIQILGVKTSRFLCQRPDGALYGSLHFDPEACSFRERLLEDGYNVYQSEAHGLPLHLPGNKSPHRDPAPRGPARFLPLPGLPPALPEPPGILAPQPPDVGSSDPLSMVGNSTGRSPSYAS",0.093,0.988
"12C8-F: fusion protein with R1 = 12C8 (SEQ ID NO 15), linker, Fc, linker, FGF21 element (protein) YGEGTFTSDYSIYLDKIAAKAFVQWLIAGGPSSGAPPPSGGGGSGGGGSGGGGSA[human IgG4 Fc with S228P F234A L235A (EU numbers) not listed]GGGGSGGGGSGGGGSHPIPDSSPLLQFGGQVRQVYLYTDDAQQTEAHLEIREDGTVGGAADQSPESLLQLKALKPGVIQILGVKTSRFLCQRPDGALYGSLHFDPEACSFRERLLEDGYNVYQSEAHGLPLHLPGNKSPHRDPAPRGPARFLPLPGLPPALPEPPGILAPQPPDVGSSDPLSMVGNSTGRSPSYAS",0.022,2.23
"12C9-F: fusion protein with R1 = 12C9 (SEQ ID NO 16), linker, Fc, linker, FGF21 element (protein) HSEGTFTSDYSILLDKIAAKDFVQWLIAGGPSSGAPPPSGGGGSGGGGSGGGGSA[human IgG4 Fc with S228P F234A L235A (EU numbers) not listed]GGGGSGGGGSGGGGSHPIPDSSPLLQFGGQVRQVYLYTDDAQQTEAHLEIREDGTVGGAADQSPESLLQLKALKPGVIQILGVKTSRFLCQRPDGALYGSLHFDPEACSFRERLLEDGYNVYQSEAHGLPLHLPGNKSPHRDPAPRGPARFLPLPGLPPALPEPPGILAPQPPDVGSSDPLSMVGNSTGRSPSYAS",0.093,10.7
"12C10-F: fusion protein with R1 = 12C10 (SEQ ID NO 17), linker, Fc, linker, FGF21 element (protein) YSEGTFTSDYSIYLDKIAAKAFVQWLIAGGPSSGAPPPSGGGGSGGGGSGGGGSA[human IgG4 Fc with S228P F234A L235A (EU numbers) not listed]GGGGSGGGGSGGGGSHPIPDSSPLLQFGGQVRQVYLYTDDAQQTEAHLEIREDGTVGGAADQSPESLLQLKALKPGVIQILGVKTSRFLCQRPDGALYGSLHFDPEACSFRERLLEDGYNVYQSEAHGLPLHLPGNKSPHRDPAPRGPARFLPLPGLPPALPEPPGILAPQPPDVGSSDPLSMVGNSTGRSPSYAS",0.111,7.36
"12C11-F: GLP-1/GIP mutant 12C11 (SEQ ID NO 18)-linker-IgG4 Fc-linker-FGF21 mutant fusion protein, SEQ ID NO 6 (protein, 12C11-F fusion protein) HGEGTFTSDYSIYLDKIAAKDFIEWLIAGGPSSGAPPPSGGGGSGGGGSGGGGSA[human IgG4 Fc with S228P F234A L235A (EU numbers) not listed]GGGGSGGGGSGGGGSHPIPDSSPLLQFGGQVRQVYLYTDDAQQTEAHLEIREDGTVGGAADQSPESLLQLKALKPGVIQILGVKTSRFLCQRPDGALYGSLHFDPEACSFRERLLEDGYNVYQSEAHGLPLHLPGNKSPHRDPAPRGPARFLPLPGLPPALPEPPGILAPQPPDVGSSDPLSMVGNSTGRSPSYAS",0.036,0.255
"12C1-F: GLP-1/GIP mutant 12C1 (SEQ ID NO 8)-linker-IgG4 Fc-linker-FGF21 mutant fusion protein, SEQ ID NO 4 (protein, 12C1-F fusion protein) YGEGTFTSDYSILLDKIAQKAFIEWLIAGGPSSGAPPPSGGGGSGGGGSGGGGSA[human IgG4 Fc with S228P F234A L235A (EU numbers) not listed]GGGGSGGGGSGGGGSHPIPDSSPLLQFGGQVRQVYLYTDDAQQTEAHLEIREDGTVGGAADQSPESLLQLKALKPGVIQILGVKTSRFLCQRPDGALYGSLHFDPEACSFRERLLEDGYNVYQSEAHGLPLHLPGNKSPHRDPAPRGPARFLPLPGLPPALPEPPGILAPQPPDVGSSDPLSMVGNSTGRSPSYAS",0.064,0.83
